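In this assay, cells in 96-well plates receive the compound at five concentrations for 48 hours. Endpoints are linearly interpolated between the surrounding concentrations. Here, GI50 denotes the concentration required for 50% inhibition of growth. At the TGI there is no net growth.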
Tested on: NCI-H322M lung
Experiment: NCI anticancer screen, dose series, 48 h

Point of comparison: `CC[C@]12C=CCN3CC[C@@]4(c5ccc(OC)cc5N(C)[C@H]4[C@@](O)(C(=O)OC)[C@@H]1OC(=O)CCCC[P+](c1ccc(F)cc1)(c1ccc(F)cc1)c1ccc(F)cc1)[C@@H]32`, GI50 50000 nM. Against it:
- CN(C)c1ccnc(CNCCSC2(c3ccc(C(F)(F)F)cc3)c3ccccc3CCc3ccccc32)c1 — 100-fold lower, 495 nM
- CC1(C)CC[C@]23CC[C@]4(C)[C@H](CC[C@@H]5[C@@]6(C)CC[C@H](N)C(C)(C)[C@@H]6CC[C@]54C)[C@H]2[C@H]1OC3=O — 30-fold lower, 1640 nM
- CC(Nc1ncnc2ccc(-c3ccc4oc(N)nc4c3)cc12)c1ccccc1 (stereo not drawn) — 23-fold lower, 2160 nM

Point of comparison: `CC1(C)CC[C@]23CC[C@]4(C)[C@H](CC[C@@H]5[C@@]6(C)CC[C@H](N)C(C)(C)[C@@H]6CC[C@]54C)[C@H]2[C@H]1OC3=O`, TGI 2990 nM. Against it:
- CN(C)c1ccnc(CNCCSC2(c3ccc(C(F)(F)F)cc3)c3ccccc3CCc3ccccc32)c1 — 5.1-fold higher, 15100 nM
- CC[C@]12C=CCN3CC[C@@]4(c5ccc(OC)cc5N(C)[C@H]4[C@@](O)(C(=O)OC)[C@@H]1OC(=O)CCCC[P+](c1ccc(F)cc1)(c1ccc(F)cc1)c1ccc(F)cc1)[C@@H]32 — higher, > 100000 nM
- CC(Nc1ncnc2ccc(-c3ccc4oc(N)nc4c3)cc12)c1ccccc1 (stereo not drawn) — 2.3-fold higher, 6930 nM

— PubChem BioAssay (NCI)
